# Measured values as given in the supplement of paper PMC4967469.
# Legend:
# Assay in all cases: Viability of human cancer cell lines after 72 h of drug (GDSC screen)
# CH5424802 = compound: CCc1cc2c(cc1N1CCC(N3CCOCC3)CC1)C(C)(C)c1[nH]c3cc(C#N)ccc3c1C2=O [CH5424802]; settings: top dose 5.12 µM; top dose inferred
# Description: (§1)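 Human cancer cell lines in 384-well plates, medium with 10% serum, drug for 72 h over a 256-fold dose range (nine 2-fold or five 4-fold steps up to the top dose). Adherent lines were fixed and stained with the nucleic acid dye Syto60, suspension lines read with resazurin; signal relative to control wells, capped at 0 and 100%. One two-parameter sigmoid per drug and line, fitted in a mixed model over all curves with the slope shared within a line.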
# CAY10603 = compound: CC(C)(C)OC(=O)Nc1ccc(-c2cc(C(=O)NCCCCCCC(=O)NO)no2)cc1 [CAY10603]; settings: top dose 20 µM; top dose inferred
# Description: as §1
# XMD8-92 = compound: CCOc1cc(N2CCC(O)CC2)ccc1Nc1ncc2c(n1)N(C)c1ccccc1C(=O)N2C [XMD8-92]; settings: top dose 10 µM; top dose inferred
# Description: as §1
# ACHP (KIN001-260) = compound: N#Cc1c(C2CCNCC2)cc(-c2c(O)cccc2OCC2CC2)nc1N [ACHP (KIN001-260)]; settings: top dose 20 µM; top dose inferred
# Description: as §1
Cell Line,AUC (CH5424802),IC50 (CH5424802),AUC (CAY10603),IC50 (CAY10603),AUC (XMD8-92),IC50 (XMD8-92),AUC (ACHP (KIN001-260)),IC50 (ACHP (KIN001-260))
"SK-CO-1 (large intestine, adherent)",0.989,> 5.12 µM,0.731,5.44 µM,0.943,> 10 µM,0.97,> 20 µM
"Capan-2 (pancreas, adherent)",0.981,> 5.12 µM,0.976,> 20 µM,0.982,> 10 µM,0.985,> 20 µM
"SW982 (soft tissue, adherent)",0.979,> 5.12 µM,0.596,2.32 µM,0.831,6.6 µM,0.971,> 20 µM
"A673 (rhabdomyosarcoma, adherent)",0.99,> 5.12 µM,0.486,1.15 µM,0.981,> 10 µM,0.985,> 20 µM
"MDST8 (large intestine, adherent)",0.985,> 5.12 µM,0.546,1.67 µM,0.912,> 10 µM,0.978,> 20 µM
"ES8 (Ewing sarcoma, adherent)",0.969,> 5.12 µM,0.238,0.234 µM,0.911,> 10 µM,0.859,14.6 µM
"NB69 (neuroblastoma, adherent)",0.975,> 5.12 µM,0.468,1.03 µM,0.727,2.52 µM,0.962,> 20 µM
"TE-4 (oesophagus, adherent)",0.983,> 5.12 µM,0.642,3.07 µM,0.986,> 10 µM,0.983,> 20 µM
"RH-1 (rhabdomyosarcoma, adherent)",0.984,> 5.12 µM,0.248,0.274 µM,0.956,> 10 µM,0.893,16.9 µM
"COLO-800 (melanoma, adherent)",0.984,> 5.12 µM,0.818,10.9 µM,0.866,8.49 µM,0.977,> 20 µM
"MOG-G-CCM (glioma, adherent)",0.979,> 5.12 µM,0.462,0.968 µM,0.922,> 10 µM,0.947,> 20 µM
"SNU-C2B (large intestine, adherent)",0.901,> 5.12 µM,0.564,1.97 µM,0.874,> 10 µM,0.957,> 20 µM
"D-566MG (glioma, adherent)",0.984,> 5.12 µM,0.439,0.851 µM,0.916,> 10 µM,0.955,> 20 µM
"NCI-H847 (small cell lung carcinoma, adherent)",0.963,> 5.12 µM,0.198,0.202 µM,0.901,8.57 µM,0.882,14.3 µM
"OACp4C (oesophagus, adherent)",0.913,> 5.12 µM,0.34,0.408 µM,0.883,> 10 µM,0.838,17.7 µM
"LNCaP-Clone-FGC (prostate, adherent)",0.982,> 5.12 µM,0.398,0.631 µM,0.86,> 10 µM,0.946,> 20 µM
"CS1 (bone, adherent)",0.932,> 5.12 µM,0.577,2.08 µM,0.946,> 10 µM,0.938,> 20 µM
"HCC1954 (breast, adherent)",0.982,> 5.12 µM,0.738,6.78 µM,0.982,> 10 µM,0.984,> 20 µM
"SK-MEL-5 (melanoma, adherent)",0.983,> 5.12 µM,0.954,> 20 µM,0.893,> 10 µM,0.982,> 20 µM
"RCC-JF (kidney, adherent)",0.956,> 5.12 µM,0.376,0.544 µM,0.933,> 10 µM,0.956,> 20 µM
"CAS-1 (glioma, adherent)",0.946,> 5.12 µM,0.658,4.05 µM,0.899,> 10 µM,0.973,> 20 µM
"SW1710 (bladder, adherent)",0.985,> 5.12 µM,0.591,2.24 µM,0.863,9.08 µM,0.924,> 20 µM
"HT-29 (large intestine, adherent)",0.985,> 5.12 µM,0.468,1.02 µM,0.874,9.72 µM,0.963,> 20 µM
"CAL-33 (head and neck, adherent)",0.984,> 5.12 µM,0.649,3.24 µM,0.911,> 10 µM,0.98,> 20 µM

Cell Line,AUC (CH5424802),IC50 (CH5424802),AUC (CAY10603),IC50 (CAY10603),AUC (XMD8-92),IC50 (XMD8-92),AUC (ACHP (KIN001-260)),IC50 (ACHP (KIN001-260))
"RVH-421 (melanoma, adherent)",0.893,> 5.12 µM,0.661,4.15 µM,0.891,> 10 µM,0.942,> 20 µM
"NTERA-2 cl.D1 (testis, adherent)",0.984,> 5.12 µM,0.475,1.07 µM,0.846,7.16 µM,0.961,> 20 µM
"A498 (kidney, adherent)",0.944,> 5.12 µM,0.855,> 20 µM,0.976,> 10 µM,0.977,> 20 µM
"NCI-H345 (small cell lung carcinoma, suspension)",0.985,> 5.12 µM,0.533,1.54 µM,0.989,> 10 µM,0.98,> 20 µM
"DMS-53 (small cell lung carcinoma, adherent)",0.988,> 5.12 µM,0.921,> 20 µM,0.903,> 10 µM,0.988,> 20 µM
"RKN (ovary, adherent)",0.979,> 5.12 µM,0.594,2.29 µM,0.896,> 10 µM,0.962,> 20 µM
"NCI-H2110 (non-small cell lung carcinoma, adherent)",0.977,> 5.12 µM,0.445,0.884 µM,0.938,> 10 µM,0.894,> 20 µM
"NCI-H196 (small cell lung carcinoma, adherent)",0.949,> 5.12 µM,0.361,0.508 µM,0.985,> 10 µM,0.98,> 20 µM
"WM35 (melanoma, adherent)",0.98,> 5.12 µM,0.406,0.691 µM,0.826,6.1 µM,0.857,16.4 µM
"NCI-H2087 (lung adenocarcinoma, semi-adherent)",0.897,> 5.12 µM,0.6,2.4 µM,0.946,> 10 µM,0.96,> 20 µM
"NCI-H226 (lung squamous cell carcinoma, adherent)",0.987,> 5.12 µM,0.437,0.836 µM,0.914,> 10 µM,0.958,> 20 µM
"CL-11 (large intestine, adherent)",0.987,> 5.12 µM,0.873,> 20 µM,0.881,> 10 µM,0.987,> 20 µM
"SCC-4 (head and neck, adherent)",0.979,> 5.12 µM,0.622,2.89 µM,0.945,> 10 µM,0.97,> 20 µM
"ES1 (Ewing sarcoma, adherent)",0.986,> 5.12 µM,0.324,0.406 µM,0.936,> 10 µM,0.921,> 20 µM
"NCI-H716 (large intestine, suspension)",0.971,> 5.12 µM,0.664,4.05 µM,0.842,9.85 µM,0.892,> 20 µM
"Hs940-T (melanoma, adherent)",0.984,> 5.12 µM,0.712,5.7 µM,0.958,> 10 µM,0.981,> 20 µM
"OCI-LY-19 (B-cell lymphoma, suspension)",0.981,> 5.12 µM,0.278,0.31 µM,0.912,> 10 µM,0.721,4.99 µM
"NCI-H810 (large cell lung carcinoma, adherent)",0.975,> 5.12 µM,0.308,0.373 µM,0.892,> 10 µM,0.946,> 20 µM
"LB996-RCC (kidney, adherent)",0.981,> 5.12 µM,0.982,> 20 µM,0.844,8.97 µM,0.978,> 20 µM
"SJRH30 (rhabdomyosarcoma, adherent)",0.948,> 5.12 µM,0.535,1.57 µM,0.911,> 10 µM,0.986,> 20 µM
"JIMT-1 (breast, adherent)",0.982,> 5.12 µM,0.7,4.81 µM,0.883,> 10 µM,0.983,> 20 µM
"NCI-H1770 (non-small cell lung carcinoma, suspension)",0.992,> 5.12 µM,0.666,3.39 µM,0.986,> 10 µM,0.99,> 20 µM
"PCI-30 (head and neck, adherent)",0.975,> 5.12 µM,0.984,> 20 µM,0.904,> 10 µM,0.984,> 20 µM

# A lower IC50 marks a more sensitive line; where the fit passes the top or lowest dose, that dose stands as a limit. AUC, from the same fit, is the share of area under the viability curve across the 256-fold dose range: 1 means no effect, lower means more sensitive. An inferred top dose comes from the curve model; the source does not state it.
